Measured values reported in the supplement of paper PMC8728848.
The list shows a part of the results.

Tests used:
Assay in all cases: glycan array binding signal (z-score within array); higher = stronger binding
Details in all cases: glycan notation: IUPAC condensed, linker removed
Neu5Ac(a2-3)Gal(b1-4)Glc = molecular target: Neu5Ac(a2-3)Gal(b1-4)Glc
How it was run: (§1)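 Glycan array data came from 3228 arrays in the Consortium for Functional Glycomics database, and only arrays with an available protein sequence were kept. Glycan names were put into IUPAC-condensed notation, and columns mapping to the same glycan were averaged. The binding signal is a within-array Z-score, averaged across arrays of one protein sequence run at different concentrations or buffers and across linkers. A negative Z-score can be read as non-binding.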

[1] = molecular target: Neu5Ac(a2-3)Gal(b1-4)GlcNAc
How it was run: as §1

[2] = molecular target: Neu5Ac(a2-3)Gal(b1-4)GlcNAc(b1-2)Man
How it was run: as §1

[3] = molecular target: Neu5Ac(a2-3)Gal(b1-4)GlcNAc(b1-2)Man(a1-3)[GlcNAc(b1-4)][Neu5Ac(a2-3)Gal(b1-4)GlcNAc(b1-2)Man(a1-6)]Man(b1-4)GlcNAc(b1-4)GlcNAc
How it was run: as §1

[4] = molecular target: Neu5Ac(a2-3)Gal(b1-4)GlcNAc(b1-2)Man(a1-3)[Neu5Ac(a2-3)Gal(b1-4)GlcNAc(b1-2)Man(a1-6)]Man(b1-4)GlcNAc(b1-4)GlcNAc
How it was run: as §1

[5] = molecular target: Neu5Ac(a2-3)Gal(b1-4)GlcNAc(b1-2)Man(a1-3)[Neu5Ac(a2-3)Gal(b1-4)GlcNAc(b1-2)Man(a1-6)]Man(b1-4)GlcNAc(b1-4)[Fuc(a1-6)]GlcNAc
How it was run: as §1

[6] = molecular target: Neu5Ac(a2-3)Gal(b1-4)GlcNAc(b1-2)Man(a1-3)[Neu5Ac(a2-6)Gal(b1-4)GlcNAc(b1-2)Man(a1-6)]Man(b1-4)GlcNAc(b1-4)GlcNAc
How it was run: as §1

[7] = molecular target: Neu5Ac(a2-3)Gal(b1-4)GlcNAc(b1-2)[Neu5Ac(a2-3)Gal(b1-4)GlcNAc(b1-4)]Man(a1-3)[GlcNAc(b1-4)][Neu5Ac(a2-3)Gal(b1-4)GlcNAc(b1-2)[Neu5Ac(a2-3)Gal(b1-4)GlcNAc(b1-6)]Man(a1-6)]Man(b1-4)GlcNAc(b1-4)GlcNAc
How it was run: as §1

[8] = molecular target: Neu5Ac(a2-3)Gal(b1-4)GlcNAc(b1-2)[Neu5Ac(a2-3)Gal(b1-4)GlcNAc(b1-4)]Man(a1-3)[GlcNAc(b1-4)][Neu5Ac(a2-3)Gal(b1-4)GlcNAc(b1-4)Man(a1-6)]Man(b1-4)GlcNAc(b1-4)GlcNAc
How it was run: as §1

[9] = molecular target: Neu5Ac(a2-3)Gal(b1-4)GlcNAc(b1-2)[Neu5Ac(a2-3)Gal(b1-4)GlcNAc(b1-6)]Man(a1-6)[Neu5Ac(a2-3)Gal(b1-4)GlcNAc(b1-2)Man(a1-3)]Man(b1-4)GlcNAc(b1-4)GlcNAc
How it was run: as §1

[10] = molecular target: Neu5Ac(a2-3)Gal(b1-4)GlcNAc(b1-2)[Neu5Ac(a2-3)Gal(b1-4)GlcNAc(b1-6)]Man(a1-6)[Neu5Ac(a2-3)Gal(b1-4)GlcNAc(b1-2)Man(a1-3)][GlcNAc(b1-4)]Man(b1-4)GlcNAc(b1-4)GlcNAc
How it was run: as §1

[11] = molecular target: Neu5Ac(a2-3)Gal(b1-4)GlcNAc(b1-3)Gal
How it was run: as §1

[12] = molecular target: Neu5Ac(a2-3)Gal(b1-4)GlcNAc(b1-3)Gal(b1-3)GlcNAc
How it was run: as §1

[13] = molecular target: Neu5Ac(a2-3)Gal(b1-4)GlcNAc(b1-3)Gal(b1-4)GlcNAc
How it was run: as §1

[14] = molecular target: Neu5Ac(a2-3)Gal(b1-4)GlcNAc(b1-3)Gal(b1-4)GlcNAc(b1-2)Man(a1-3)[Neu5Ac(a2-3)Gal(b1-4)GlcNAc(b1-3)Gal(b1-4)GlcNAc(b1-2)Man(a1-6)]Man(b1-4)GlcNAc(b1-4)GlcNAc
How it was run: as §1

[15] = molecular target: Neu5Ac(a2-3)Gal(b1-4)GlcNAc(b1-3)Gal(b1-4)GlcNAc(b1-3)Gal(b1-4)GlcNAc
How it was run: as §1

[16] = molecular target: Neu5Ac(a2-3)Gal(b1-4)GlcNAc(b1-3)Gal(b1-4)GlcNAc(b1-3)Gal(b1-4)GlcNAc(b1-2)Man(a1-3)[Neu5Ac(a2-3)Gal(b1-4)GlcNAc(b1-3)Gal(b1-4)GlcNAc(b1-3)Gal(b1-4)GlcNAc(b1-2)Man(a1-6)]GalNAc
How it was run: as §1

[17] = molecular target: Neu5Ac(a2-3)Gal(b1-4)GlcNAc(b1-3)Gal(b1-4)GlcNAc(b1-3)GalNAc
How it was run: as §1

[18] = molecular target: Neu5Ac(a2-3)Gal(b1-4)GlcNAc(b1-3)Gal(b1-4)GlcNAc(b1-3)[Neu5Ac(a2-3)Gal(b1-4)GlcNAc(b1-3)Gal(b1-4)GlcNAc(b1-6)]GalNAc
How it was run: as §1

[19] = molecular target: Neu5Ac(a2-3)Gal(b1-4)GlcNAc(b1-3)Gal(b1-4)GlcNAc(b1-6)[Gal(b1-3)]GalNAc
How it was run: as §1

[20] = molecular target: Neu5Ac(a2-3)Gal(b1-4)GlcNAc(b1-3)Gal(b1-4)[Fuc(a1-3)]GlcNAc
How it was run: as §1

[21] = molecular target: Neu5Ac(a2-3)Gal(b1-4)GlcNAc(b1-3)GalNAc
How it was run: as §1

[22] = molecular target: Neu5Ac(a2-3)Gal(b1-4)GlcNAc(b1-3)[Neu5Ac(a2-3)Gal(b1-4)GlcNAc(b1-6)]GalNAc
How it was run: as §1

[23] = molecular target: Neu5Ac(a2-3)Gal(b1-4)GlcNAc(b1-6)GalNAc
How it was run: as §1

[24] = molecular target: Neu5Ac(a2-3)Gal(b1-4)GlcNAc(b1-6)[Gal(b1-3)]GalNAc
How it was run: as §1

[25] = molecular target: Neu5Ac(a2-3)Gal(b1-4)GlcNAc(b1-6)[Neu5Ac(a2-3)Gal(b1-3)]GalNAc
How it was run: as §1

[26] = molecular target: Neu5Ac(a2-3)Gal(b1-4)GlcNAc6S
How it was run: as §1

[27] = molecular target: Neu5Ac(a2-3)Gal(b1-4)[Fuc(a1-3)]GlcNAc
How it was run: as §1

[28] = molecular target: Neu5Ac(a2-3)Gal(b1-4)[Fuc(a1-3)]GlcNAc(b1-2)Man
How it was run: as §1

[29] = molecular target: Neu5Ac(a2-3)Gal(b1-4)[Fuc(a1-3)]GlcNAc(b1-3)Gal
How it was run: as §1

[30] = molecular target: Neu5Ac(a2-3)Gal(b1-4)[Fuc(a1-3)]GlcNAc(b1-3)Gal(b1-4)GlcNAc
How it was run: as §1

[31] = molecular target: Neu5Ac(a2-3)Gal(b1-4)[Fuc(a1-3)]GlcNAc(b1-3)Gal(b1-4)[Fuc(a1-3)]GlcNAc(b1-3)Gal(b1-4)[Fuc(a1-3)]GlcNAc
How it was run: as §1

[32] = molecular target: Neu5Ac(a2-3)Gal(b1-4)[Fuc(a1-3)]GlcNAc(b1-3)GalNAc
How it was run: as §1

[33] = molecular target: Neu5Ac(a2-3)Gal(b1-4)[Fuc(a1-3)]GlcNAc(b1-6)[Gal(b1-3)]GalNAc
How it was run: as §1

[34] = molecular target: Neu5Ac(a2-3)Gal(b1-4)[Fuc(a1-3)]GlcNAc(b1-6)[Neu5Ac(a2-3)Gal(b1-3)]GalNAc
How it was run: as §1

[35] = molecular target: Neu5Ac(a2-3)Gal(b1-4)[Fuc(a1-3)]GlcNAc6S
How it was run: as §1

[36] = molecular target: Neu5Ac(a2-3)Gal6S(b1-4)GlcNAc
How it was run: as §1

[37] = molecular target: Neu5Ac(a2-3)Gal6S(b1-4)[Fuc(a1-3)]GlcNAc
How it was run: as §1

B1: Cohesin-hDCIR (Homo sapiens) (protein)
chain: LDDLDAVRIKVDTVNAKPGDTVRIPVRFSGIPSKGIANCDFVYSYDPNVLEIIEIEPGDIIVDPNPDKSFDTAVYPDRKIIVFLFAEDSGTGAYAITKDGVFATIVAKVKEGAPNGLSVIKFVEVGGFANNDLVEQKTQFFDGGANVGDTTEPATPTTPVTTPTTTDDLDAASQKYSQLLEKKTTKELVHTTLECVKKNMPVEETAWSCCPKNWKSFSSNCYFISTESASWQDSEKDCARMEAHLLVINTQEEQDFIFQNLQEESAYFVGLSDPEGQRHWQWVDQTPYNESSTFWHPREPSDPNERCVVLNFRKSPKRWGWNDVNCLGPQRSVCEMMKIHLHHHHHH
Neu5Ac(a2-3)Gal(b1-4)Glc
  glycan array binding signal (z-score): -0.005
[1]
  glycan array binding signal (z-score): 0.035
[2]
  glycan array binding signal (z-score): 0.375
[3]
  glycan array binding signal (z-score): -0.66
[4]
  glycan array binding signal (z-score): -0.589
[5]
  glycan array binding signal (z-score): -0.586
[6]
  glycan array binding signal (z-score): -0.547
[7]
  glycan array binding signal (z-score): -0.508
[8]
  glycan array binding signal (z-score): -0.53
[9]
  glycan array binding signal (z-score): -0.511
[10]
  glycan array binding signal (z-score): -0.467
[11]
  glycan array binding signal (z-score): -0.585
[12]
  glycan array binding signal (z-score): -0.657
[13]
  glycan array binding signal (z-score): -0.516
[14]
  glycan array binding signal (z-score): -0.438
[15]
  glycan array binding signal (z-score): 0.494
[16]
  glycan array binding signal (z-score): 0.024
[17]
  glycan array binding signal (z-score): -0.034
[18]
  glycan array binding signal (z-score): 0.538
[19]
  glycan array binding signal (z-score): 0.001
[20]
  glycan array binding signal (z-score): 0.992
[21]
  glycan array binding signal (z-score): -0.23
[22]
  glycan array binding signal (z-score): 0.114
[23]
  glycan array binding signal (z-score): 2.14
[24]
  glycan array binding signal (z-score): -0.58
[25]
  glycan array binding signal (z-score): 0.272
[26]
  glycan array binding signal (z-score): -0.518
[27]
  glycan array binding signal (z-score): -0.342
[28]
  glycan array binding signal (z-score): -0.276
[29]
  glycan array binding signal (z-score): -0.674
[30]
  glycan array binding signal (z-score): -0.056
[31]
  glycan array binding signal (z-score): -0.669
[32]
  glycan array binding signal (z-score): -0.024
[33]
  glycan array binding signal (z-score): -0.187
[34]
  glycan array binding signal (z-score): -0.28
[35]
  glycan array binding signal (z-score): 0.027
[36]
  glycan array binding signal (z-score): -0.608
[37]
  glycan array binding signal (z-score): -0.602
